± gives the standard deviation of the averaged measurements. Growth of baker's yeast expressing single-residue variants of Pneumocystis jirovecii dihydrofolate reductase in 8.8 or 44 µM methotrexate (about 75% and 90% inhibition of the wild type). Selection coefficient per generation; 0 = like wild type, above 0 = less sensitive, below 0 = more sensitive or loss of function. No active / inactive call per row; the paper calls resistant above 0.220 (8.8 µM) or 0.243 (44 µM) together with a significance test. At 44 µM about 15% of codons end with one read or none, so the lowest values are floors (replicate rank correlation 0.74; 0.94 at 8.8 µM).

Sequences and labels used below:
B1: UniProt A0EPZ9; numbered along this chain (parent)
chain: MDWQKSLTLIVALTLSRGIGLKNDLPWKLKSDMMFFSRVTSGLLVTRSTGQMNVVLMGRKTWESLPAHSRPLKNRINVVISRQEVLDLGGGAYHARSLDDALALLSQIYDSTSKIQLNRVFVIGGGELCKAAMEHSRLNRIIATVIHNEVDCDVFFPIDFRSSQSCLPWRKQDHSVLEAWVGSKVPQGKINENGFIYEFEMWIRDI

This series covers variants of B1. The series can be described thus: selection coefficient against synonymous wild-type codons (log2 per generation); higher = faster growth than wild type. Conditions: with Saccharomyces cerevisiae carrying the variant on a plasmid. The method, then:
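Pooled growth of yeast carrying single-residue variants of P. jirovecii dihydrofolate reductase (own DFR1 gene intact), two passages at 30 °C, three cultures, sequenced before and after. Codons with under 15 starting reads are left out; codons of one change are averaged.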

As for MDWQKSLTLIVALTLSRGIGLKNDLPWKLKSDMMFFSRVTSGLLVTRSTGQMNVVLMGRKTWESLPAHSRPLKNRINVVISRQEVLDLGGGAYHARSLDDALALLSQIYDSTSKIQLNRVFVIGGGELCKAAMEHSRLNRIIATVIHNEVDCDVFFPIDFTSSQSCLPWRKQDHSVLEAWVGSKVPQGKINENGFIYEFEMWIRDI [R161T], the “selection coefficient against synonymous wild-type codons (log2)” value (“selection coefficient … (log2)” below) is 0.135 ± 0.045 (methotrexate 8.8 µM) and 0.0874 ± 0.037 (methotrexate 44 µM).
On to MDWQKSWTLIVALTLSRGIGLKNDLPWKLKSDMMFFSRVTSGLLVTRSTGQMNVVLMGRKTWESLPAHSRPLKNRINVVISRQEVLDLGGGAYHARSLDDALALLSQIYDSTSKIQLNRVFVIGGGELCKAAMEHSRLNRIIATVIHNEVDCDVFFPIDFRSSQSCLPWRKQDHSVLEAWVGSKVPQGKINENGFIYEFEMWIRDI [L7W], for which the “selection coefficient … (log2)” value was -0.0197 ± 0.022 (methotrexate 8.8 µM) and -0.0409 ± 0.025 (methotrexate 44 µM).
Take MDWQKSLTLIVALTLSRGIGLKNDLPWKLKSDMMFFSRVTSGLLVTRSTGQMNVVLMGRNTWESLPAHSRPLKNRINVVISRQEVLDLGGGAYHARSLDDALALLSQIYDSTSKIQLNRVFVIGGGELCKAAMEHSRLNRIIATVIHNEVDCDVFFPIDFRSSQSCLPWRKQDHSVLEAWVGSKVPQGKINENGFIYEFEMWIRDI [K60N]: the “selection coefficient … (log2)” value is -0.0885 ± 0.041 (methotrexate 8.8 µM) and -0.172 ± 0.19 (methotrexate 44 µM).
Turning to MDWQKSLTLIVALTLSRGIGLKNDLPWKLKSDMMFFSRVTSGLLVTRSTGQMNVVLMGRKTWESLPAHSRPLKNRINVVISRQEVLDLGGGAYHARSLDDALALLSQIYDSTSKIQLNRVFVIGGGELCKAAMEHSRLNRIIATVIHNEVDCDVFFPIDFRSSQSCLPWFKQDHSVLEAWVGSKVPQGKINENGFIYEFEMWIRDI [R170F], the “selection coefficient … (log2)” value (methotrexate 8.8 µM) was -0.13 ± 0.064 and the “selection coefficient … (log2)” value (methotrexate 44 µM) was -0.125 ± 0.16.
In the case of MDWQKSLTLIVALTLSRGIGLKNDLPWKLKSDMMFFSRVTSGLLVTRSTGQMNVVLMGRKTWESLPAHSRPLKNRINVVISRQEVLDLGGGAYHARSLDDALALLSQIYDSTSKIQLNRVFVIGGGELCKAAMEHSRLNRIIAYVIHNEVDCDVFFPIDFRSSQSCLPWRKQDHSVLEAWVGSKVPQGKINENGFIYEFEMWIRDI [T144Y], the “selection coefficient … (log2)” value by setting is: (methotrexate 8.8 µM) -0.75 ± 0.11; (methotrexate 44 µM) -0.4 ± 0.1.
MDWQKSLTLIVALTLSRGIGLKNDLPWKLKSDMMFFSRVTSGLLVTRSTGQMNVVLMGRKTWESLPAHSRPLKNRINVVISRQEVLDLGGGAYHARSLDDALALLSQIYDSTSKIQLNRVFVIGGGELCKAAMEHSRLNDIIATVIHNEVDCDVFFPIDFRSSQSCLPWRKQDHSVLEAWVGSKVPQGKINENGFIYEFEMWIRDI [R140D]: the “selection coefficient … (log2)” value is, setting by setting: (methotrexate 8.8 µM) -0.231 ± 0.079; (methotrexate 44 µM) -0.197 ± 0.033.
With MDWQKSLTLIVALTLSRGIGLKNDLPWKLKSDMMFFSRVTSGLLVTRSTGQMNVVLMGRKTWESLPAHSRPLKNRINVVISRQEVLDLGGGAYHARSLDDALALLSQIYDSCSKIQLNRVFVIGGGELCKAAMEHSRLNRIIATVIHNEVDCDVFFPIDFRSSQSCLPWRKQDHSVLEAWVGSKVPQGKINENGFIYEFEMWIRDI [T112C], the “selection coefficient … (log2)” value by setting is: (methotrexate 8.8 µM) -0.104 ± 0.094; (methotrexate 44 µM) -0.13 ± 0.082.
The matching figures for MDWQKSLTLIVALTLSRGIGLKNDLPWKLKSDMMFFSRVTSGLLVTRSTGQMNVVLMGRKTWESLPAHSRPLKNRINVVISRQEVLDLGGGAYHARSLDDALALLSQIYDSTSKIQLNRVFVIGGGNLCKAAMEHSRLNRIIATVIHNEVDCDVFFPIDFRSSQSCLPWRKQDHSVLEAWVGSKVPQGKINENGFIYEFEMWIRDI [E127N]: -0.1 ± 0.011 and -0.099 ± 0.02.
With MDWQKSLTLIVALTLSRGIGLKNDLPWKLKSDMMFFSRVTSGLLVTRSTGQMNVVLMGRKTWESLPAHSRPLKNRINVVISRQEVLDLGGGAYHARSLDDALALLSQEYDSTSKIQLNRVFVIGGGELCKAAMEHSRLNRIIATVIHNEVDCDVFFPIDFRSSQSCLPWRKQDHSVLEAWVGSKVPQGKINENGFIYEFEMWIRDI [I108E], the “selection coefficient … (log2)” value was -0.241 ± 0.036 (methotrexate 8.8 µM) and -0.292 ± 0.2 (methotrexate 44 µM).
On to MDWQKSLTLIVALTLSRGIGLKNDLPWKLKSDMMFFSRVTSGLLVTRSTGQMNVVLMGRKTWESLPAHSRPLKNRINVVISRQEVLDLGGGAYHARSLDDALALLSQIYDSTSKIQLNRVFVIGGGELCKAAMEHSRLNRIIATVIHNEVDCDVFFPIDFRSSQSCLWWRKQDHSVLEAWVGSKVPQGKINENGFIYEFEMWIRDI [P168W], for which the “selection coefficient … (log2)” value was -0.268 ± 0.059 (methotrexate 8.8 µM) and -0.3 ± 0.069 (methotrexate 44 µM).
In the case of MDWQKSLTLIVALTLSRGIGLKNDLPWKLKSDMMFFSRVTSGLLVTRSTGQMNVVLMGRKTWESLPAHSRPLKNRINVVISRQEVLDLGGGAYHARSLDDALALLSQIYDSTSKIQLNRVFVIGGGELCKAAMEHSRLNRIIATVIHNEVDCDVFFPIDFRSSQSCLMWRKQDHSVLEAWVGSKVPQGKINENGFIYEFEMWIRDI [P168M], the “selection coefficient … (log2)” value is, setting by setting: (methotrexate 8.8 µM) -0.237 ± 0.089; (methotrexate 44 µM) -0.309 ± 0.098.
Regarding MDWQKSLTLIVALTLSRGIGFKNDLPWKLKSDMMFFSRVTSGLLVTRSTGQMNVVLMGRKTWESLPAHSRPLKNRINVVISRQEVLDLGGGAYHARSLDDALALLSQIYDSTSKIQLNRVFVIGGGELCKAAMEHSRLNRIIATVIHNEVDCDVFFPIDFRSSQSCLPWRKQDHSVLEAWVGSKVPQGKINENGFIYEFEMWIRDI [L21F], the “selection coefficient … (log2)” value runs as follows: (methotrexate 8.8 µM) 0.0539 ± 0.0024; (methotrexate 44 µM) 0.0943 ± 0.051.
Take MDWQKSLTLIVALTLSRGIGLKNDLPWKLKSDMMFFSRVTSGLLVTRSTGQMNVVLMGRKTWESLPAHSRPLKNRINVVISRQEVLDLGGGAYHARSLDDALALLSQIYDSTSKIQLNRVFVIGGGELCKAAMEHSRLNRIICTVIHNEVDCDVFFPIDFRSSQSCLPWRKQDHSVLEAWVGSKVPQGKINENGFIYEFEMWIRDI [A143C]: the “selection coefficient … (log2)” value reads like this: (methotrexate 8.8 µM) 0.112 ± 0.0038; (methotrexate 44 µM) 0.167 ± 0.14.
Turning to MDWQKSLTLIVALTLSRGIGLKNDLPWKLKSDMMFFSRVTSGLLVTRSTGQMNVVLMGRKTWESLPAHSRPLKNRINVVISRQEVLDLGGGAYHARSLDDALALLSQIYDSTSKIQLNRVFVIGGGELCKAAMEHSRLNRIIATVIHNEVDCDVFFPIDFRSSQSCLPWRKQDHSVLEAWVGSKVPQGKINENGTIYEFEMWIRDI [F195T], the “selection coefficient … (log2)” value was determined as 0.123 ± 0.11 (methotrexate 8.8 µM) and 0.0563 ± 0.063 (methotrexate 44 µM).
With MDWQKSLTLIVALTLSRGIGLKNDLPWKLKSDMMFFSRVTSGLLVTRSTGQMNVVLMGRKTWESLPAHSRPLKNRINVVISRQEVLDLGGGAYHARSLDDALALLSQIYDSTSKIQLNRVFVIGGGELCKAAMEHSRLNRIIATVIHNEVDCDVFFPIDFRSSQSCLPWRKQDHSVLYAWVGSKVPQGKINENGFIYEFEMWIRDI [E178Y], the “selection coefficient … (log2)” value was -0.561 ± 0.0074 (methotrexate 8.8 µM) and -0.326 ± 0.051 (methotrexate 44 µM).

Source of the values: the supplement of paper PMC11125491.
